Laboratory results taken from the supplement of paper PMC8728848.
The other results are listed elsewhere or left out.

How the values were obtained:
Test in all cases: glycan array binding signal (z-score within array); higher = stronger binding
Conditions in all cases: glycan notation: IUPAC condensed, linker removed
[1] = molecular target: Neu5Ac(a2-6)GlcNAc(b1-4)GlcNAc(b1-4)GlcNAc
Outline: (§1)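 The binding signal is a Z-score computed within each array and averaged over linkers. Arrays of the same protein sequence at different concentrations or buffers were also averaged together. Data originate from 3228 arrays in the Consortium for Functional Glycomics database, kept only where the protein sequence was available.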

Neu5Ac(a2-8)Neu5Ac = molecular target: Neu5Ac(a2-8)Neu5Ac
Outline: as §1

[2] = molecular target: Neu5Ac(a2-8)Neu5Ac(a2-3)Gal(b1-3)GalNAc(b1-4)[Neu5Ac(a2-3)]Gal(b1-4)Glc
Outline: as §1

[3] = molecular target: Neu5Ac(a2-8)Neu5Ac(a2-3)Gal(b1-3)GalNAc(b1-4)[Neu5Ac(a2-8)Neu5Ac(a2-3)]Gal(b1-4)Glc
Outline: as §1

[4] = molecular target: Neu5Ac(a2-8)Neu5Ac(a2-3)Gal(b1-4)Glc
Outline: as §1

[5] = molecular target: Neu5Ac(a2-8)Neu5Ac(a2-3)Gal(b1-4)GlcNAc
Outline: as §1

[6] = molecular target: Neu5Ac(a2-8)Neu5Ac(a2-3)[Gal(b1-3)GalNAc(b1-4)]Gal(b1-4)Glc
Outline: as §1

[7] = molecular target: Neu5Ac(a2-8)Neu5Ac(a2-3)[GalNAc(b1-4)]Gal(b1-4)Glc
Outline: as §1

[8] = molecular target: Neu5Ac(a2-8)Neu5Ac(a2-8)Neu5Ac
Outline: as §1

[9] = molecular target: Neu5Ac(a2-8)Neu5Ac(a2-8)Neu5Ac(a2-3)Gal(b1-4)Glc
Outline: as §1

[10] = molecular target: Neu5Ac(a2-8)Neu5Ac(a2-8)Neu5Ac(a2-3)[Gal(b1-3)GalNAc(b1-4)]Gal(b1-4)Glc
Outline: as §1

[11] = molecular target: Neu5Ac(a2-8)Neu5Ac(a2-8)Neu5Ac(a2-3)[GalNAc(b1-4)]Gal(b1-4)Glc
Outline: as §1

[12] = molecular target: Neu5Ac(a2-8)Neu5Ac(a2-8)Neu5Ac(a2-8)Neu5Ac(a2-3)[GalNAc(b1-4)]Gal(b1-4)Glc
Outline: as §1

[13] = molecular target: Neu5Ac(a2-8)Neu5Gc(a2-3)Gal(b1-4)GlcNAc
Outline: as §1

[14] = molecular target: Neu5Ac(b2-6)Gal(b1-4)GlcNAc
Outline: as §1

Neu5Ac(b2-6)GalNAc = molecular target: Neu5Ac(b2-6)GalNAc
Outline: as §1

[15] = molecular target: Neu5Ac9Ac(a2-3)Gal(b1-3)GlcNAc
Outline: as §1

[16] = molecular target: Neu5Ac9Ac(a2-3)Gal(b1-4)GlcNAc
Outline: as §1

[17] = molecular target: Neu5Ac9Ac(a2-6)Gal(b1-4)GlcNAc
Outline: as §1

[18] = molecular target: Neu5Gc(a2-3)Gal(b1-3)GlcNAc
Outline: as §1

[19] = molecular target: Neu5Gc(a2-3)Gal(b1-3)[Fuc(a1-4)]GlcNAc
Outline: as §1

Neu5Gc(a2-3)Gal(b1-4)Glc = molecular target: Neu5Gc(a2-3)Gal(b1-4)Glc
Outline: as §1

[20] = molecular target: Neu5Gc(a2-3)Gal(b1-4)GlcNAc
Outline: as §1

[21] = molecular target: Neu5Gc(a2-3)Gal(b1-4)GlcNAc(b1-3)Gal(b1-4)GlcNAc(b1-2)Man(a1-3)[Neu5Gc(a2-3)Gal(b1-4)GlcNAc(b1-3)Gal(b1-4)GlcNAc(b1-2)Man(a1-6)]Man(b1-4)GlcNAc(b1-4)GlcNAc
Outline: as §1

[22] = molecular target: Neu5Gc(a2-3)Gal(b1-4)[Fuc(a1-3)]GlcNAc
Outline: as §1

[23] = molecular target: Neu5Gc(a2-6)Gal(b1-4)GlcNAc
Outline: as §1

Neu5Gc(a2-6)GalNAc = molecular target: Neu5Gc(a2-6)GalNAc
Outline: as §1

[24] = molecular target: Neu5Gc(a2-8)Neu5Ac(a2-3)Gal(b1-4)GlcNAc
Outline: as §1

[25] = molecular target: Neu5Gc(a2-8)Neu5Gc(a2-3)Gal(b1-4)GlcNAc
Outline: as §1

[26] = molecular target: Neu5Gc(a2-8)Neu5Gc(a2-3)Gal(b1-4)GlcNAc(b1-3)Gal(b1-4)GlcNAc
Outline: as §1

[27] = molecular target: Neu5Gc(a2-8)Neu5Gc(a2-6)Gal(b1-4)GlcNAc
Outline: as §1

[28] = molecular target: Neu5Gc(b2-6)Gal(b1-4)GlcNAc
Outline: as §1

B1: CFEM-SCL (Saccharomyces cerevisiae), O13547 (protein)
chain: MRATTLLSSVVSLALLSKEVLATPPACLLACVAQVGKSSSTCDSLNQVTCYCEHENSAVKKCLDSICPNNDADAAYSAFKSSCSEQNASLGD
- glycan array binding signal (z-score) [1]: -0.345
- glycan array binding signal (z-score) (Neu5Ac(a2-8)Neu5Ac): -0.237
- glycan array binding signal (z-score) [2]: -0.287
- glycan array binding signal (z-score) [3]: -0.147
- glycan array binding signal (z-score) [4]: -0.334
- glycan array binding signal (z-score) [5]: -0.255
- glycan array binding signal (z-score) [6]: 0.641
- glycan array binding signal (z-score) [7]: -0.285
- glycan array binding signal (z-score) [8]: -0.286
- glycan array binding signal (z-score) [9]: -0.375
- glycan array binding signal (z-score) [10]: -0.036
- glycan array binding signal (z-score) [11]: -0.298
- glycan array binding signal (z-score) [12]: -0.274
- glycan array binding signal (z-score) [13]: -0.289
- glycan array binding signal (z-score) [14]: 0.174
- glycan array binding signal (z-score) (Neu5Ac(b2-6)GalNAc): -0.169
- glycan array binding signal (z-score) [15]: -0.256
- glycan array binding signal (z-score) [16]: -0.325
- glycan array binding signal (z-score) [17]: -0.335
- glycan array binding signal (z-score) [18]: -0.298
- glycan array binding signal (z-score) [19]: -0.308
- glycan array binding signal (z-score) (Neu5Gc(a2-3)Gal(b1-4)Glc): -0.239
- glycan array binding signal (z-score) [20]: -0.323
- glycan array binding signal (z-score) [21]: -0.291
- glycan array binding signal (z-score) [22]: -0.154
- glycan array binding signal (z-score) [23]: 0.075
- glycan array binding signal (z-score) (Neu5Gc(a2-6)GalNAc): -0.244
- glycan array binding signal (z-score) [24]: -0.131
- glycan array binding signal (z-score) [25]: -0.135
- glycan array binding signal (z-score) [26]: -0.293
- glycan array binding signal (z-score) [27]: -0.308
- glycan array binding signal (z-score) [28]: -0.202
